{
  "source": "paper PMC4336329",
  "about": "(PLoS ONE, 2015)",
  "note": "The whole screen tested about 310,000 compounds, of which about 2,200 (0.71%) showed an effect of 50% or more. Effects have a minus sign here. This is one part of the list.",
  "data": [
    {"target": "human ether-à-go-go-related gene (hERG) potassium channel (human, UniProt Q12809)", "sequence (Q12809 whole entry, looked up)": "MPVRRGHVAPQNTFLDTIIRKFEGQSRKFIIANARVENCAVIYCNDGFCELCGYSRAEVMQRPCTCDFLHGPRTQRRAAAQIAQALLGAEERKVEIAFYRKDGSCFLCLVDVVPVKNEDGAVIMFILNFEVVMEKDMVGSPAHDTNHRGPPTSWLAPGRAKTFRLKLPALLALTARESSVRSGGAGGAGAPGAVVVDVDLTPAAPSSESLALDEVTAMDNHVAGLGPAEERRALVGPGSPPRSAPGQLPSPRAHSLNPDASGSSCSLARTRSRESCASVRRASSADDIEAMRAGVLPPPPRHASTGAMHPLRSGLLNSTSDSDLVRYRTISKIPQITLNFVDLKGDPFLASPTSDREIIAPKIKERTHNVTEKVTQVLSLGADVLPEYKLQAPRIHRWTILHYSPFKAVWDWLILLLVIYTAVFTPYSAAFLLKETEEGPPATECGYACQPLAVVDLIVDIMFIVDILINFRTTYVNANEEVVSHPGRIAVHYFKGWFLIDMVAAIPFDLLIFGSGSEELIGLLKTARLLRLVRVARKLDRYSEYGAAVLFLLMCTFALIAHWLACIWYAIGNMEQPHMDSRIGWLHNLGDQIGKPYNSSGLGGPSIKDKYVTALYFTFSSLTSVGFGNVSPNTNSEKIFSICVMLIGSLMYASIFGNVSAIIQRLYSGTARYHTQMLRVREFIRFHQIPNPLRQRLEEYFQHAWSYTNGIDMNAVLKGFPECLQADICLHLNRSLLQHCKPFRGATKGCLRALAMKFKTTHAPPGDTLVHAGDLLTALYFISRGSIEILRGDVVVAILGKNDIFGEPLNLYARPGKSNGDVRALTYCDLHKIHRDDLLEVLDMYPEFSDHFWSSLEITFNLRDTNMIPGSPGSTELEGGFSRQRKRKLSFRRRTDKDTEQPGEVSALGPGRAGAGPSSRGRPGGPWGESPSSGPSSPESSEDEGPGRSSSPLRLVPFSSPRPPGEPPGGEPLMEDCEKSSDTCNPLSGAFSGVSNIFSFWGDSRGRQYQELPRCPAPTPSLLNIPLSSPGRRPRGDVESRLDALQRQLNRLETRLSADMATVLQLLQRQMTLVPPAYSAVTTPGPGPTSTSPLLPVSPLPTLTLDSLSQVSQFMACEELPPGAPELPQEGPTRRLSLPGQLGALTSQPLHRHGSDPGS", "assay": "primary screen, population patch clamp on CHO cells stably expressing hERG", "units": {"hERG current change (%, negative = inhibition) at 1uM": "%"}, "values": [
      {"smiles": "CN(CC(=O)NCCc1ccc(F)cc1)Cc1cccs1", "hERG current change (%, negative = inhibition) at 1uM": 7.54},
      {"smiles": "NS(=O)(=O)c1ccc(NC(=O)COC(=O)CSCc2ccc(F)cc2)cc1", "hERG current change (%, negative = inhibition) at 1uM": 8.94},
      {"smiles": "O=C(OCc1ccccc1F)c1ccc2c(c1)OCCO2", "hERG current change (%, negative = inhibition) at 1uM": 11},
      {"smiles": "O=[N+]([O-])c1cccc(-c2nnc3c4ccccc4c4ccccc4n23)c1", "hERG current change (%, negative = inhibition) at 1uM": 8.67},
      {"smiles": "COc1ccccc1NC(=O)C(C)OC(=O)c1cccc(-n2cnnn2)c1", "note": "(centres unmarked)", "hERG current change (%, negative = inhibition) at 1uM": -4.04},
      {"smiles": "CC(=O)Nc1ccc(SCCN2CC[C@@H](O)CCC2=O)cc1", "hERG current change (%, negative = inhibition) at 1uM": 8.45},
      {"smiles": "Cc1onc(-c2ccccc2Cl)c1C(=O)Nc1ccc(-n2nncc2-c2ccco2)cc1", "hERG current change (%, negative = inhibition) at 1uM": 5.59},
      {"smiles": "COc1ccc(CN2CCN(Cc3cccc4nonc34)CC2CCO)c(C)c1C", "note": "(centres unmarked)", "hERG current change (%, negative = inhibition) at 1uM": -7.13},
      {"smiles": "O=C(O)c1ccc(N2C(=O)CC(N3CCC(c4nc5ccccc5[nH]4)CC3)C2=O)cc1", "note": "(centres unmarked)", "hERG current change (%, negative = inhibition) at 1uM": 12.3},
      {"smiles": "O=C(CSc1nnc(-c2ccccc2Br)o1)N1CCN(C(=O)c2ccco2)CC1", "hERG current change (%, negative = inhibition) at 1uM": -9.7},
      {"smiles": "O=C(CSc1ncnc2c1nnn2Cc1ccccc1)NC1CCCCC1", "hERG current change (%, negative = inhibition) at 1uM": -2.06},
      {"smiles": "COCCn1nnnc1C(C(C)C)N1CCOCC1.Cl", "note": "(centres unmarked)", "hERG current change (%, negative = inhibition) at 1uM": 9.91},
      {"smiles": "COCCCNCCOCCOc1ccc(Cl)cc1Br.O=C(O)C(=O)O", "hERG current change (%, negative = inhibition) at 1uM": -19.4},
      {"smiles": "CCOc1cc(/C=N\\NC(=O)c2ccc(NC(=O)C(C)(C)C)cc2)ccc1OC(=O)c1cccc(C)c1", "hERG current change (%, negative = inhibition) at 1uM": 6.95},
      {"smiles": "O=C(CCc1nnc(CCCc2ccccc2)o1)NCCc1ccccc1", "hERG current change (%, negative = inhibition) at 1uM": 2.6},
      {"smiles": "Cc1ccc(-c2csc(NCCn3c(C(F)(F)F)nc4ccccc43)n2)cc1", "hERG current change (%, negative = inhibition) at 1uM": 5.37},
      {"smiles": "CC1(C)CC(=O)C=C(c2ccc(Cl)c(C(F)(F)F)c2)C1", "hERG current change (%, negative = inhibition) at 1uM": 5.81},
      {"smiles": "Cc1ccccc1NC(=O)NC(N)=O", "hERG current change (%, negative = inhibition) at 1uM": 8.13},
      {"smiles": "CCOc1cc2c(Cl)ncnc2c(OCC)c1OCC", "hERG current change (%, negative = inhibition) at 1uM": 17},
      {"smiles": "CC(c1ccco1)N(C(=O)c1ccc(Cl)s1)c1ccccn1", "note": "(centres unmarked)", "hERG current change (%, negative = inhibition) at 1uM": 11},
      {"smiles": "COc1ccc(N(CC(=O)NCc2cccnc2)S(=O)(=O)c2ccccc2[N+](=O)[O-])c(OC)c1", "hERG current change (%, negative = inhibition) at 1uM": 0.92},
      {"smiles": "Cc1snc2sc(C(=O)c3ccc(Br)cc3)c(N)c12", "hERG current change (%, negative = inhibition) at 1uM": 9.74},
      {"smiles": "OCCC1CN(Cc2nc(-c3ccccc3)cs2)CCN1C1CCCC1", "note": "(centres unmarked)", "hERG current change (%, negative = inhibition) at 1uM": -39.2},
      {"smiles": "CC(=O)OC(C)[C@H]1CC[C@H]2[C@@H]3CC[C@H]4C[C@@H](OC(C)=O)CC[C@]4(C)C3=CC[C@]12C", "note": "(some centres unmarked)", "hERG current change (%, negative = inhibition) at 1uM": 7.92},
      {"smiles": "O=C1OC(c2ccc(Cl)cc2)=N/C1=C\\C=C\\c1ccco1", "hERG current change (%, negative = inhibition) at 1uM": 21},
      {"smiles": "Cc1ccc(S(=O)(=O)NCC(=O)Nc2ccc(C(F)(F)F)cc2)cc1", "hERG current change (%, negative = inhibition) at 1uM": 0.529},
      {"smiles": "CC(On1nnc2ccc(S(=O)(=O)N3CCOCC3)cc21)C(=O)Nc1ccccc1F", "note": "(centres unmarked)", "hERG current change (%, negative = inhibition) at 1uM": 5.04},
      {"smiles": "CC(=O)c1ccc(NC(=O)N2CCN(c3ccc(C)cc3)C(C)C2)cc1", "note": "(centres unmarked)", "hERG current change (%, negative = inhibition) at 1uM": 3.77},
      {"smiles": "CCCCNC(=O)C1CC(=O)N(C2CCCC2)C1", "note": "(centres unmarked)", "hERG current change (%, negative = inhibition) at 1uM": 9.88},
      {"smiles": "COCc1cc(=O)n2c(-c3ccc(C)cc3)n[nH]c2n1", "hERG current change (%, negative = inhibition) at 1uM": 8},
      {"smiles": "COc1ccc2cnn(-c3ccccc3)c(=O)c2c1OC", "hERG current change (%, negative = inhibition) at 1uM": 10.1},
      {"smiles": "COc1ccc(CC(NC(C)=O)C(=O)NC2CCN(C(=O)Nc3ccccc3Cl)CC2)cc1OC", "note": "(centres unmarked)", "hERG current change (%, negative = inhibition) at 1uM": 14},
      {"smiles": "N#C/C(=C\\c1ccccc1[N+](=O)[O-])C(=O)NC1CCCCC1", "hERG current change (%, negative = inhibition) at 1uM": 3.5},
      {"smiles": "O=C(NCCCO)c1nc2ccccc2s1", "hERG current change (%, negative = inhibition) at 1uM": 2.2},
      {"smiles": "Cn1c(=O)c2c(ncn2Cc2ccc(Cl)cc2)n(C)c1=O", "hERG current change (%, negative = inhibition) at 1uM": 5.78},
      {"smiles": "CN(CCO)c1cc(N2CCN(C(=O)c3ccco3)CC2)c2nonc2c1[N+](=O)[O-]", "hERG current change (%, negative = inhibition) at 1uM": -1.3},
      {"smiles": "COC(=O)CNC(=O)/C=C/c1cc(Br)ccc1OC", "hERG current change (%, negative = inhibition) at 1uM": 11.4},
      {"smiles": "CC(C)CN1C(=O)C(=O)N(CC(=O)Nc2cc(Cl)ccc2Oc2ccccc2)C1=O", "hERG current change (%, negative = inhibition) at 1uM": 2.76},
      {"smiles": "Cc1cc(N2CCN(C)CC2)nc2ccc(NC(=O)CCC(=O)NCCC3=CCCCC3)cc12", "hERG current change (%, negative = inhibition) at 1uM": -5.36},
      {"smiles": "CC(=O)c1cccc(NC(=O)N2CCCCCC2)c1", "hERG current change (%, negative = inhibition) at 1uM": 11},
      {"smiles": "Cc1c(C(=O)OCC(=O)c2c(N)n(CC(C)C)c(=O)n(C)c2=O)oc2ccccc12", "hERG current change (%, negative = inhibition) at 1uM": 16.4},
      {"smiles": "O=C(CN1CCCCC1)Nc1ccccc1Oc1ccccc1", "hERG current change (%, negative = inhibition) at 1uM": 10.1},
      {"smiles": "Cc1cc(C)nc(-n2ncc3c2CC(c2ccc(C(C)C)cc2)CC3=O)n1", "note": "(centres unmarked)", "hERG current change (%, negative = inhibition) at 1uM": 9.52},
      {"smiles": "COc1ccc(CNC(=O)c2cnn3c(C(F)F)cc(C)nc23)cc1OC", "hERG current change (%, negative = inhibition) at 1uM": 10.8},
      {"smiles": "COc1ccc(Cl)cc1NC(=O)COC(=O)/C=C/c1c(C)nn(C2CCS(=O)(=O)C2)c1Cl", "note": "(centres unmarked)", "hERG current change (%, negative = inhibition) at 1uM": -1.91},
      {"smiles": "CC1Cc2cc(/C(O)=C3/C(=O)C(=O)N(CCN4CCOCC4)C3c3ccc(N(C)C)cc3)ccc2O1", "note": "(centres unmarked)", "hERG current change (%, negative = inhibition) at 1uM": 12.3},
      {"smiles": "Cc1csc(SCC(=O)c2c(N)n(CC(C)C)c(=O)n(C)c2=O)n1", "hERG current change (%, negative = inhibition) at 1uM": 2.81},
      {"smiles": "COc1ccc(N(Cc2cc3ccccc3[nH]c2=O)C(=O)C2CCCO2)cc1", "note": "(centres unmarked)", "hERG current change (%, negative = inhibition) at 1uM": 11.9},
      {"smiles": "COc1ccc(NC(=S)NCCCN2CCCC2)cc1Cl", "hERG current change (%, negative = inhibition) at 1uM": 17.9},
      {"smiles": "Cc1cc(S(=O)(=O)NC2CCCCC2)c(C)s1", "hERG current change (%, negative = inhibition) at 1uM": -7.81},
      {"smiles": "CCc1noc(C)c1C(=O)Nc1nc(-c2ccc(OC)cc2OC)cs1", "hERG current change (%, negative = inhibition) at 1uM": 11.6},
      {"smiles": "Cc1cccc(C(=O)N2CCCCCC2)c1[N+](=O)[O-]", "hERG current change (%, negative = inhibition) at 1uM": 8.31},
      {"smiles": "CCOc1ccc(Nc2nc(N3CCCC3)nc(N3CCN(c4ccc(OC)cc4)CC3)n2)cc1", "hERG current change (%, negative = inhibition) at 1uM": 3.56},
      {"smiles": "Cc1ccc(S(=O)(=O)N(C)Cc2ccccc2)cc1C(=O)N1CCCCC1", "hERG current change (%, negative = inhibition) at 1uM": 3.96},
      {"smiles": "Cc1c(Cl)cnc(NC(=O)COC(=O)c2cc3c(s2)CCC(C)C3)c1Cl", "note": "(centres unmarked)", "hERG current change (%, negative = inhibition) at 1uM": 16.3},
      {"smiles": "CCCOC(=O)c1ccc(Oc2coc3c(CN(CC)CC)c(O)ccc3c2=O)cc1", "hERG current change (%, negative = inhibition) at 1uM": 3.04}
    ]}
  ]
}
